{
  "source": "the supplement of paper PMC8728848",
  "binders": {"B1": {"name": "GS7807E-bfa-538-23-538 (Bacteroides fragilis) (protein)", "chain": "TDSFESFNTNEAGFDNDSKKQDFNYYGIPLGIIQQGIYFNYDWGSGKNWPFQTMQNLGADLFSGYVHDFNPFNEGKNNSTYYMMDGWNGSTWDNTYGYIMPEVQKSETINEKDNIGFFGITKILKVELMHRLSDLYGPIVYTQFGSKTGSTPDTQQEAYKAFFNDLDTGIAKIREYQKANPDIESFAKFDILMPQGKRTFSEWIRFANSLRLRLAVRIAMADSKLAVAEAQKALTDEEGLLEGNDEVVAVSTSSGYTNPFGEINKAWGEVFMNANMESLLVGYEDPRMEKYFDKATGSDATSLIDYKGTYKGIRQGTGFSHKNYNGHSKSTITQQTDAVLMTPAEVWFLRAEAALRGWSSESVKDCYEKGVKASFAQWGAAGAEAYLESDRKPSDYVDAFKAANNVKAVNTLTPKWDDAAGNEDKLGRIITQKWLAMFPEGGEAWAEQRRTGYPRLFPVLVNQSEGTVDTNLGPRRLNFFVGIKTTNPEQYTQLVNALGGIDNCGTRLWWDTGRNF"}},
  "assay_in_all_cases": "glycan array binding signal (z-score within array); higher = stronger binding",
  "details_in_all_cases": "glycan notation: IUPAC condensed, linker removed",
  "key": {"[1]": {"target": "Neu5Ac(a2-6)Gal(b1-3)GlcNAc(b1-3)[Gal(b1-4)GlcNAc(b1-6)]Gal(b1-4)Glc", "outline": "(§1)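 The binding signal is a Z-score computed within each array and averaged over linkers. Arrays of the same protein sequence at different concentrations or buffers were also averaged together. Data originate from 3228 arrays in the Consortium for Functional Glycomics database, kept only where the protein sequence was available.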"}, "[2]": {"target": "Neu5Ac(a2-6)Gal(b1-4)Glc", "outline": "as §1"}, "[3]": {"target": "Neu5Ac(a2-6)Gal(b1-4)GlcNAc", "outline": "as §1"}, "[4]": {"target": "Neu5Ac(a2-6)Gal(b1-4)GlcNAc(b1-2)Man", "outline": "as §1"}, "[5]": {"target": "Neu5Ac(a2-6)Gal(b1-4)GlcNAc(b1-2)Man(a1-3)Man(b1-4)GlcNAc(b1-4)GlcNAc", "outline": "as §1"}, "[6]": {"target": "Neu5Ac(a2-6)Gal(b1-4)GlcNAc(b1-2)Man(a1-3)[Gal(b1-4)GlcNAc(b1-2)Man(a1-6)]Man(b1-4)GlcNAc(b1-4)GlcNAc", "outline": "as §1"}, "[7]": {"target": "Neu5Ac(a2-6)Gal(b1-4)GlcNAc(b1-2)Man(a1-3)[GlcNAc(b1-2)Man(a1-6)]Man(b1-4)GlcNAc(b1-4)GlcNAc", "outline": "as §1"}, "[8]": {"target": "Neu5Ac(a2-6)Gal(b1-4)GlcNAc(b1-2)Man(a1-3)[GlcNAc(b1-4)][Neu5Ac(a2-6)Gal(b1-4)GlcNAc(b1-2)Man(a1-6)]Man(b1-4)GlcNAc(b1-4)GlcNAc", "outline": "as §1"}, "[9]": {"target": "Neu5Ac(a2-6)Gal(b1-4)GlcNAc(b1-2)Man(a1-3)[Man(a1-6)]Man(b1-4)GlcNAc(b1-4)GlcNAc", "outline": "as §1"}, "[10]": {"target": "Neu5Ac(a2-6)Gal(b1-4)GlcNAc(b1-2)Man(a1-3)[Neu5Ac(a2-3)Gal(b1-4)GlcNAc(b1-2)Man(a1-6)]Man(b1-4)GlcNAc(b1-4)GlcNAc", "outline": "as §1"}, "[11]": {"target": "Neu5Ac(a2-6)Gal(b1-4)GlcNAc(b1-2)Man(a1-3)[Neu5Ac(a2-6)Gal(b1-4)GlcNAc(b1-2)Man(a1-6)]Man(b1-4)GlcNAc(b1-4)GlcNAc", "outline": "as §1"}, "[12]": {"target": "Neu5Ac(a2-6)Gal(b1-4)GlcNAc(b1-2)Man(a1-3)[Neu5Ac(a2-6)Gal(b1-4)GlcNAc(b1-2)Man(a1-6)]Man(b1-4)GlcNAc(b1-4)[Fuc(a1-6)]GlcNAc", "outline": "as §1"}, "[13]": {"target": "Neu5Ac(a2-6)Gal(b1-4)GlcNAc(b1-2)Man(a1-6)Man(b1-4)GlcNAc(b1-4)GlcNAc", "outline": "as §1"}, "[14]": {"target": "Neu5Ac(a2-6)Gal(b1-4)GlcNAc(b1-2)Man(a1-6)[Gal(b1-4)GlcNAc(b1-2)Man(a1-3)]Man(b1-4)GlcNAc(b1-4)GlcNAc", "outline": "as §1"}, "[15]": {"target": "Neu5Ac(a2-6)Gal(b1-4)GlcNAc(b1-2)Man(a1-6)[GlcNAc(b1-2)Man(a1-3)]Man(b1-4)GlcNAc(b1-4)GlcNAc", "outline": "as §1"}, "[16]": {"target": "Neu5Ac(a2-6)Gal(b1-4)GlcNAc(b1-2)Man(a1-6)[Man(a1-3)]Man(b1-4)GlcNAc(b1-4)GlcNAc", "outline": "as §1"}, "[17]": {"target": "Neu5Ac(a2-6)Gal(b1-4)GlcNAc(b1-2)[Neu5Ac(a2-6)Gal(b1-4)GlcNAc(b1-4)]Man(a1-3)[GlcNAc(b1-4)][Neu5Ac(a2-6)Gal(b1-4)GlcNAc(b1-2)[Neu5Ac(a2-6)Gal(b1-4)GlcNAc(b1-6)]Man(a1-6)]Man(b1-4)GlcNAc(b1-4)GlcNAc", "outline": "as §1"}, "[18]": {"target": "Neu5Ac(a2-6)Gal(b1-4)GlcNAc(b1-2)[Neu5Ac(a2-6)Gal(b1-4)GlcNAc(b1-4)]Man(a1-3)[GlcNAc(b1-4)][Neu5Ac(a2-6)Gal(b1-4)GlcNAc(b1-4)Man(a1-6)]Man(b1-4)GlcNAc(b1-4)GlcNAc", "outline": "as §1"}, "[19]": {"target": "Neu5Ac(a2-6)Gal(b1-4)GlcNAc(b1-2)[Neu5Ac(a2-6)Gal(b1-4)GlcNAc(b1-6)]Man(a1-6)[Neu5Ac(a2-6)Gal(b1-4)GlcNAc(b1-2)Man(a1-3)][GlcNAc(b1-4)]Man(b1-4)GlcNAc(b1-4)GlcNAc", "outline": "as §1"}, "[20]": {"target": "Neu5Ac(a2-6)Gal(b1-4)GlcNAc(b1-3)Gal(b1-3)GlcNAc", "outline": "as §1"}, "[21]": {"target": "Neu5Ac(a2-6)Gal(b1-4)GlcNAc(b1-3)Gal(b1-4)GlcNAc", "outline": "as §1"}, "[22]": {"target": "Neu5Ac(a2-6)Gal(b1-4)GlcNAc(b1-3)Gal(b1-4)GlcNAc(b1-2)Man(a1-3)[Neu5Ac(a2-6)Gal(b1-4)GlcNAc(b1-3)Gal(b1-4)GlcNAc(b1-2)Man(a1-6)]GalNAc", "outline": "as §1"}, "[23]": {"target": "Neu5Ac(a2-6)Gal(b1-4)GlcNAc(b1-3)Gal(b1-4)GlcNAc(b1-3)Gal(b1-4)GlcNAc", "outline": "as §1"}, "[24]": {"target": "Neu5Ac(a2-6)Gal(b1-4)GlcNAc(b1-3)Gal(b1-4)GlcNAc(b1-3)Gal(b1-4)GlcNAc(b1-2)Man(a1-3)[Neu5Ac(a2-6)Gal(b1-4)GlcNAc(b1-3)Gal(b1-4)GlcNAc(b1-3)Gal(b1-4)GlcNAc(b1-2)Man(a1-6)]GalNAc", "outline": "as §1"}, "[25]": {"target": "Neu5Ac(a2-6)Gal(b1-4)GlcNAc(b1-3)Gal(b1-4)GlcNAc(b1-3)GalNAc", "outline": "as §1"}, "[26]": {"target": "Neu5Ac(a2-6)Gal(b1-4)GlcNAc(b1-3)Gal(b1-4)GlcNAc(b1-3)[Neu5Ac(a2-6)Gal(b1-4)GlcNAc(b1-3)Gal(b1-4)GlcNAc(b1-6)]GalNAc", "outline": "as §1"}, "[27]": {"target": "Neu5Ac(a2-6)Gal(b1-4)GlcNAc(b1-3)Gal(b1-4)GlcNAc(b1-6)[Gal(b1-3)]GalNAc", "outline": "as §1"}, "[28]": {"target": "Neu5Ac(a2-6)Gal(b1-4)GlcNAc(b1-3)Gal(b1-4)[Fuc(a1-3)]GlcNAc(b1-3)Gal(b1-4)[Fuc(a1-3)]GlcNAc", "outline": "as §1"}, "[29]": {"target": "Neu5Ac(a2-6)Gal(b1-4)GlcNAc(b1-3)GalNAc", "outline": "as §1"}, "[30]": {"target": "Neu5Ac(a2-6)Gal(b1-4)GlcNAc(b1-3)[Neu5Ac(a2-6)Gal(b1-4)GlcNAc(b1-6)]GalNAc", "outline": "as §1"}, "[31]": {"target": "Neu5Ac(a2-6)Gal(b1-4)GlcNAc(b1-6)GalNAc", "outline": "as §1"}, "[32]": {"target": "Neu5Ac(a2-6)Gal(b1-4)GlcNAc(b1-6)[Gal(b1-3)GlcNAc(b1-3)]Gal(b1-4)Glc", "outline": "as §1"}, "[33]": {"target": "Neu5Ac(a2-6)Gal(b1-4)GlcNAc(b1-6)[Gal(b1-3)]GalNAc", "outline": "as §1"}, "[34]": {"target": "Neu5Ac(a2-6)Gal(b1-4)GlcNAc6S", "outline": "as §1"}, "[35]": {"target": "Neu5Ac(a2-6)GalNAc", "outline": "as §1"}, "[36]": {"target": "Neu5Ac(a2-6)GalNAc(b1-4)GlcNAc", "outline": "as §1"}, "[37]": {"target": "Neu5Ac(a2-6)GalNAc(b1-4)GlcNAc6S", "outline": "as §1"}, "[38]": {"target": "Neu5Ac(a2-6)GlcNAc(b1-4)GlcNAc", "outline": "as §1"}},
  "note": "This is one part of the list.",
  "data": [
    {"binder": "B1", "values": [
      {"measurement": "glycan array binding signal (z-score)", "setting": "[1]", "value": 0.149},
      {"measurement": "glycan array binding signal (z-score)", "setting": "[2]", "value": -0.655},
      {"measurement": "glycan array binding signal (z-score)", "setting": "[3]", "value": -0.395},
      {"measurement": "glycan array binding signal (z-score)", "setting": "[4]", "value": 0.901},
      {"measurement": "glycan array binding signal (z-score)", "setting": "[5]", "value": 0.764},
      {"measurement": "glycan array binding signal (z-score)", "setting": "[6]", "value": 0.07},
      {"measurement": "glycan array binding signal (z-score)", "setting": "[7]", "value": -0.484},
      {"measurement": "glycan array binding signal (z-score)", "setting": "[8]", "value": 0.072},
      {"measurement": "glycan array binding signal (z-score)", "setting": "[9]", "value": 1.98},
      {"measurement": "glycan array binding signal (z-score)", "setting": "[10]", "value": -0.678},
      {"measurement": "glycan array binding signal (z-score)", "setting": "[11]", "value": 0.478},
      {"measurement": "glycan array binding signal (z-score)", "setting": "[12]", "value": 2.32},
      {"measurement": "glycan array binding signal (z-score)", "setting": "[13]", "value": -0.26},
      {"measurement": "glycan array binding signal (z-score)", "setting": "[14]", "value": 3.21},
      {"measurement": "glycan array binding signal (z-score)", "setting": "[15]", "value": -0.644},
      {"measurement": "glycan array binding signal (z-score)", "setting": "[16]", "value": 0.194},
      {"measurement": "glycan array binding signal (z-score)", "setting": "[17]", "value": -0.635},
      {"measurement": "glycan array binding signal (z-score)", "setting": "[18]", "value": -0.24},
      {"measurement": "glycan array binding signal (z-score)", "setting": "[19]", "value": 0.164},
      {"measurement": "glycan array binding signal (z-score)", "setting": "[20]", "value": -0.187},
      {"measurement": "glycan array binding signal (z-score)", "setting": "[21]", "value": -0.639},
      {"measurement": "glycan array binding signal (z-score)", "setting": "[22]", "value": 1.08},
      {"measurement": "glycan array binding signal (z-score)", "setting": "[23]", "value": -0.589},
      {"measurement": "glycan array binding signal (z-score)", "setting": "[24]", "value": 0.933},
      {"measurement": "glycan array binding signal (z-score)", "setting": "[25]", "value": -0.607},
      {"measurement": "glycan array binding signal (z-score)", "setting": "[26]", "value": -0.258},
      {"measurement": "glycan array binding signal (z-score)", "setting": "[27]", "value": 1.89},
      {"measurement": "glycan array binding signal (z-score)", "setting": "[28]", "value": -0.173},
      {"measurement": "glycan array binding signal (z-score)", "setting": "[29]", "value": 0.58},
      {"measurement": "glycan array binding signal (z-score)", "setting": "[30]", "value": 1.13},
      {"measurement": "glycan array binding signal (z-score)", "setting": "[31]", "value": -0.512},
      {"measurement": "glycan array binding signal (z-score)", "setting": "[32]", "value": 1.71},
      {"measurement": "glycan array binding signal (z-score)", "setting": "[33]", "value": -0.059},
      {"measurement": "glycan array binding signal (z-score)", "setting": "[34]", "value": -0.682},
      {"measurement": "glycan array binding signal (z-score)", "setting": "[35]", "value": -0.635},
      {"measurement": "glycan array binding signal (z-score)", "setting": "[36]", "value": -0.685},
      {"measurement": "glycan array binding signal (z-score)", "setting": "[37]", "value": 0.616},
      {"measurement": "glycan array binding signal (z-score)", "setting": "[38]", "value": -0.672}
    ]}
  ]
}
